In PubChem BioAssay AID1159614 (National Center for Advancing Translational Sciences (NCATS), 2016):
Screen size: about 45,000 compounds; about 65 (0.1%) were called active. Calls follow the shape of the dose curve; as a rule, active = well fitted activation curve with a large enough effect; inconclusive = small, poorly fitted or top-dose-only effect; inactive = no such curve, though single readings can be large or run the other way. The list shows a part of the results.

Each molecule was assayed against Galactocerebrosidase (Homo sapiens) (UniProt P54803) (assay: A Novel Cell-Based Assay to Identify Small Molecules for B -Galactocerebrosidase). Details: 145M-Twi-hGALC-G270D cells, HMU-beta-Gal fluorescence, 48 h; series mostly up to 57.5 µM; activation: at the top concentration.
Chain of UniProt P54803 (P54803 whole entry, looked up): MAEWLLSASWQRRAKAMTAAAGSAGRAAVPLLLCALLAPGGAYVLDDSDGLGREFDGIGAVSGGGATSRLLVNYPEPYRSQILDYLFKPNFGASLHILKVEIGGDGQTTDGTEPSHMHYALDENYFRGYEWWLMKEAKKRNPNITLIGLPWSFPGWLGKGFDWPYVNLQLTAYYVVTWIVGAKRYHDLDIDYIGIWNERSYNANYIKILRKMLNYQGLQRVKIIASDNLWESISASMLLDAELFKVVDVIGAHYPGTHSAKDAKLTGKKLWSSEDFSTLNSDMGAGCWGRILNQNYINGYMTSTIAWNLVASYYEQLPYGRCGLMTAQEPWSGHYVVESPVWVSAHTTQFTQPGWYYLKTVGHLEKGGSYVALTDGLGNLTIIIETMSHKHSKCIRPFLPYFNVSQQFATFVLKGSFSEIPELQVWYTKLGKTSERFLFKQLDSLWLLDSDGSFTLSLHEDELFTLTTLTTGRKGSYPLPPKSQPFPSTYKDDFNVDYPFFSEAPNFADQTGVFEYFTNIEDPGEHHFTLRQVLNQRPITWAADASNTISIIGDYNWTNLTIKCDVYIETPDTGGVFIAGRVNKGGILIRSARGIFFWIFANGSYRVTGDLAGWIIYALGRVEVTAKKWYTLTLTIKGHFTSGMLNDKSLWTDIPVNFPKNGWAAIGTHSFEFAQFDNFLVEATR
In short: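 qHTS, 1536-well; 145M-Twi-hGALC-G270D cells (WT line also made) in DMEM/F12 + 10% FBS; compound incubation on live cells; HMU-β-gal 0.1 mM final, pH 5.2, NaTC; carbonate stop; fluorescence increase = enhanced residual activity.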
Also: 0% is about no effect; nearly all actives have a fitted effect of over 65% in size.

activation, inactive:
CCOc1ccc(NC(=O)c2cc(S(=O)(=O)N3CCN(c4ccccc4F)CC3)ccc2F)cc1 -8.55%
Cc1ccc2[nH]c(=O)c3cc(C(=O)NC4CCC(C)CC4)sc3c2c1 (stereo unspecified) -21.4%
CC(C)OCc1cc(CN2CCN(c3cccc(C(F)(F)F)c3)CC2)c(O)c2ncccc12 -20.1%
Cc1ccc(CCNC(=O)CN(c2ccc(C)cc2)S(=O)(=O)N(C)C)cc1 -27.6%
Cc1c(Cl)cccc1NC(=O)CSc1nc(=O)n(Cc2ccco2)c2c1CCC2 9.73%
COc1ccccc1C(=O)Nc1nnc2n1CCS2 -23.5%
COc1cccc2c1cc1c(=O)n(CC(=O)NCc3ccco3)nc(C)n12 7.9%
Cc1cccc(N(C)S(=O)(=O)c2cc3[nH]c(=O)c(=O)[nH]c3cc2C)c1 -2.24%
CCCCC(=O)Nc1nnc(S(=O)(=O)N(C)Cc2ccccc2)s1 -18%
CCCCCNC(=O)C1CCC(Cn2c(=O)c3sccc3n(CC(=O)NCc3cccc(OC)c3OC)c2=O)CC1 (stereo unspecified) -3.85%
CN(C)c1ccc(CNC(=O)C2CCN(Cc3cc4ccccc4n3Cc3ccccc3)CC2)cc1 -9.48%
CCSc1nnc2c(n1)OC(c1ccc(OC)c(OC)c1)N(C(C)=O)c1ccccc1-2 (stereo unspecified) -5.33%
COc1ccc(Cl)cc1NC(=O)CSc1ccc2nnc(CCNS(=O)(=O)c3ccccc3)n2n1 -6.45%
Cc1ccc(-c2noc(CSc3nnc(C)n3-c3ccc(C)c(C)c3)n2)cc1 2.04%
NS(=O)(=O)c1cc2c(cc1Cl)NCNS2(=O)=O -13.1%
O=C(COc1ccc(F)cc1)OCc1cc(=O)n2nc(-c3cccs3)sc2n1 -14.6%
CC(C)CN(CC(C)C)CC(O)Cn1cc(/C=C/C(=O)c2ccccc2)c2ccccc21 (stereo unspecified) -13.4%
COc1cccc(CNS(=O)(=O)c2c(C(=O)N3CCC(C)CC3)c(C)n(C)c2C)c1 -11%
COc1ccccc1CNC(=O)COCc1cc(-c2ccc3c(c2)OCO3)on1 -15.3%
CCOc1ccc(S(=O)(=O)Nc2ccc3oc4c(c3c2)CC(C)CC4)cc1 (stereo unspecified) -16.7%
COc1ccc(/C=C(\C#N)c2nc3ccccc3c(=O)[nH]2)cc1OC -8.35%
COc1ccc(C(=O)NCc2ccc3c(c2)CCN3C(=O)c2ccc(F)cc2)cc1 -12.9%
NC(N)=N/N=C/c1c(Cl)cccc1Cl -11.7%
CCOc1ccccc1CNC(=O)Cn1nc(N2CCN(c3ccccc3)CC2)ccc1=O -10.8%
COc1ccc(C)c2sc(NC(=O)c3ccc(S(=O)(=O)N4CCCC4)cc3)nc12 -15.8%
CCc1ccc(NC(=O)C2=CC(c3cccs3)=NS(=O)(=O)N2C)cc1 -11%
COc1cc(NS(=O)(=O)c2c(C)nc3sc(C)c(C)n3c2=O)cc(OC)c1 -13.4%
CN(C)CCC=C1c2ccccc2C=Cc2ccccc21 -15.3%
CCN1CCN(c2ncnc3c2cnn3-c2cccc(C)c2)CC1 -21.8%
O=C(NCc1ccco1)c1ccc(Cn2c(SCc3ccccc3F)nc3cccnc32)cc1 -8.01%
O=C(CSc1ncccc1C(=O)Oc1ccccc1Cl)Nc1ccccc1Cl -11.6%
CN(C)c1ccc(CNC(=O)C2COc3ccccc3C2)cc1 (stereo unspecified) -14%
Cn1nnnc1SCCCNCc1cccc(OCc2ccccc2)c1 -10.9%
Cc1c(C(=O)OCc2ccccc2)[nH]c2c1C(=O)CC(c1ccc(Cl)cc1)C2 (stereo unspecified) -20.7%
CC1CCN(S(=O)(=O)c2ccc3c(c2)N(CC(=O)NCC(C)c2ccccc2)C(=O)CO3)CC1 (stereo unspecified) -6.15%
O=C(NCc1ccc(Cl)cc1)NC1COc2ccccc2C1 (stereo unspecified) -6.5%
CCOc1ccc(C(=O)c2oc3ccccc3c2NC(=O)c2cc(-c3ccc(C)cc3)on2)cc1 -13.2%
Cc1ccc(-c2cc(C(F)(F)F)n3ncc(-c4ccccc4)c3n2)cc1 -12.2%
O=C(NC1CCCCC1)c1ccc2c(c1)N(Cc1ccccc1Cl)C(=O)c1ccccc1S2 -4.35%
COc1ccc(CCNC(=O)Cn2cc(S(=O)(=O)Cc3ccc(F)cc3)c3ccccc32)cc1OC -9.53%
CCOc1ccccc1NC(=O)C1CCCN1S(=O)(=O)c1ccc2nc(-c3ccccc3)[nH]c2c1 (stereo unspecified) -10.7%
CN(C)CCc1c[nH]c2ccc(C[C@H]3COC(=O)N3)cc12 -31.5%
Cc1ccc(S(=O)(=O)CC(=O)N2CCN(c3nc4c(F)cccc4s3)CC2)cc1 -4.96%
CCCCN(C)CCNC(=O)c1cc2c(=O)n(C)c3ccccc3c2n1C -14.8%
COc1ccc(CNC(=O)CCc2c(C)c3cc4c(C)coc4c(C)c3oc2=O)cc1OC -1.75%
N#Cc1ccccc1NS(=O)(=O)c1ccc(N2CCCCS2(=O)=O)cc1 -5.82%
CCCc1nn2c(=O)cc(COC(=O)c3ccc(NC(=O)COc4ccccc4)cc3)nc2s1 -22.5%
CN1C(=O)c2ccccc2Sc2ccc(NC(=O)c3ccc(C(F)(F)F)cc3)cc21 -11.9%
COC(=O)c1cc2oc3ccccc3c2n1Cc1ccc(Cl)cc1 -15.8%
COc1ccc(-c2nc3scc(CCNS(=O)(=O)c4ccc(F)cc4C)n3n2)cc1 -10.7%
CCn1cc(C(=O)N2CCN(c3ccccc3)CC2)c(=O)c2cc(S(=O)(=O)N3CCOCC3)ccc21 -12.7%
CCC(Oc1ccc(F)cc1)C(=O)Nc1c(C(=O)c2ccc(C)cc2)oc2ccccc12 (stereo unspecified) -12.2%
CCn1c2c(c(=O)n3ncc(C(=O)N4CCN(c5ccc(Cl)cc5)CC4)c13)CN(Cc1ccc(OC)cc1)CC2 -4.39%
Cc1ccc(Cn2c(CO)cnc2SCC(=O)Nc2ccc(C)c(Cl)c2)cc1 -14.2%
COc1ccc(N(C)C(=O)c2cn(C)c(=O)c3cc(OC)c(OC)cc23)cc1 15.8%
COc1ccc(NC(=O)c2ccc3nc(C(C)C)oc3c2)cc1OC -21.7%
Cc1ccc(-c2ccc(=O)n(CCC(=O)NCCc3ccccc3)n2)cc1 -6.06%
COc1ccc(Nc2cc(C(=O)NCCCN3CCN(c4ccccc4F)CC3)c3ccccc3n2)c(OC)c1 -23.8%
COc1cccc(CN2c3ccccc3-c3nc(SCC(=O)Nc4ccccc4Cl)ncc3S2(=O)=O)c1 -0.917%
CCOC(=O)c1[nH]c(C)c(CCC(=O)NCc2ccc(CC)cc2)c1C -4.97%
CCN(CC)CCNC(=O)c1cc2c(=O)n(C)c3cc(Cl)ccc3c2s1 1.07%
CC(C)COc1ccc(C(=O)N2CCN(CCc3ccncc3)CC2)cc1 -2.5%
O=C1CSC2(C(=O)N(Cc3cccc(F)c3)c3ccccc32)N1c1cccc(C(F)(F)F)c1 (stereo unspecified) -35.8%
CCCC(=O)OCc1cnc(C)c2oc(=O)c(C(=O)Nc3cccc(C(F)(F)F)c3)cc12 -3.85%
COc1ccc(N(Cc2cccs2)C(=O)c2ccc(OC)c(Cl)c2)cc1 -24.4%
Cc1cccc(N2CCN(C(=O)C3CCN(S(=O)(=O)c4c(C)noc4C)CC3)CC2C)c1 (stereo unspecified) -4.27%
COc1ccc(NC(=O)Cn2cc(S(=O)(=O)c3ccccc3)c(=O)c3cc4c(cc32)OCO4)cc1 -10.3%
CCN1CCc2c(sc(-n3cccc3)c2C(C)NC(=O)Nc2ccc(Br)cc2)C1 (stereo unspecified) -18.1%
Cc1ccccc1C(=O)Nc1ccc2nc(N3CCCCC3)cc(C)c2c1 -29.9%
COc1cccc(N2CCN(C(=O)C3CCN(S(=O)(=O)c4c(C)noc4/C=C/c4ccccc4F)CC3)CC2)c1 -10.3%
CCCS(=O)(=O)c1c(S(=O)(=O)CCC)c2cc(C(C)(C)C)ccn2c1C(=O)c1ccccc1 -2.07%
Cc1c(C(=O)Nc2ccccc2)sc2nc(-c3cc4cc(Cl)ccc4oc3=O)[nH]c(=O)c12 -16.8%
CCC(=O)Nc1ccccc1-c1nc2ccccc2n(CC(=O)Nc2ccccc2OC)c1=O -9.03%
Cc1cccc(C)c1NC(=O)C(NS(=O)(=O)c1cccs1)c1ccccc1 (stereo unspecified) -9.27%
O=C(NCCc1ccc(Cl)cc1)c1ccc(CS(=O)(=O)c2ccc(Cl)cc2)o1 -8.12%
O=C(Cn1ccn(-c2ccc(F)cc2)c(=O)c1=O)Nc1ccc(F)cc1 -9.92%
CCN(CC)C(=O)c1sc2c(c1C)c(=O)n(CCc1ccccc1)c(=O)n2Cc1cc(C)ccc1C -0.954%
COc1cccc(N2CCN(C(=O)c3cc4c(s3)-c3ccccc3OC4)CC2)c1 3.01%
CC(C)(C)C(=O)NCC(c1ccc2c(c1)OCO2)N1CCOCC1 (stereo unspecified) -17.1%
O=C(CSc1nnc(-c2cccs2)o1)Oc1ccccc1Cl -6.2%
COc1cc(CNC(=O)c2ccc3c(c2)c(C)c(C)n3Cc2cccc(C)c2)cc(OC)c1OC -12.5%
O=C(Cn1ncc2c3ccccc3n(Cc3cccc(Cl)c3)c2c1=O)Nc1ccc(F)cc1F -11.9%
Cc1c(Cl)cccc1NC(=O)CCOc1ccccc1 -22.2%
Cc1cccn2c(=O)c3cc(C#N)c(=O)n(-c4nnc(SCc5ccc(Cl)cc5)s4)c3nc12 -14.1%
CCOc1ccc(Cn2c(=O)sc3ccccc32)cc1 -12.3%
CCOC(=O)c1nc(NCc2ccc(Cl)cc2)c2c(C)noc2n1 -0.803%
CCC(=O)C1=C(c2ccc(C)cc2)N(C(=O)CC)n2c(nnc2C2CCCCC2)S1 -18.3%
Cc1cccc(C)c1NC(=O)CS(=O)(=O)c1nc(-c2ccc(Cl)cc2)cn1-c1ccccc1 -54.7%
CC(=O)N1CCc2cc(S(=O)(=O)NC(CC(C)C)C(=O)Nc3cc(C)cc(C)c3)ccc21 (stereo unspecified) -13%
CC1=C(C(=O)Nc2ccccc2C)C(c2ccccn2)n2ncnc2N1 (stereo unspecified) -18.4%
CC(=O)N1CCc2c(sc3c2c(=O)n(CCc2ccccc2)c(=O)n3Cc2ccccc2C)C1 -5.69%
CCSc1ncc(Cl)c(C(=O)Nc2sc3c(c2C(=O)NCCCOC)CCCC3)n1 -11.9%
Cc1ccc(C)c(-c2ccc(=O)n(Cc3c(F)cccc3Cl)n2)c1 -22.2%
COc1ccc(NC(=O)CSc2nc(-c3cccc(C)c3)[nH]c2-c2ccccc2)cc1OC -12.1%
Cc1cc(C)c2c(c1)c(C)cc1nnc(SCc3ccccc3C#N)n12 -6.78%
CC1=C(C(=O)Nc2ccc(Cl)cc2)C(c2ccccc2)n2ncc(C(=O)Nc3ccccc3)c2N1 (stereo unspecified) -44%
